# Data reported in PubChem BioAssay AID652106 (National Center for Advancing Translational Sciences (NCATS), 2013).
# The whole screen tested about 370,000 compounds, of which about 500 (0.14%) were called active. The shares of active, inactive and inconclusive entries below differ from those in the screen. Calls follow the shape of the dose curve; as a rule, active = well fitted activation curve with a large enough effect; inconclusive = small, poorly fitted or top-dose-only effect; inactive = no such curve, though single readings can be large or run the other way. Potencies of inconclusive entries are left out as doubtful fits.
# Assay: qHTS of alpha-syn Inhibitors; also: nearly all actives have a fitted effect of over 65% in size; as to growth rescue (activation): % of control where 0% means no effect
# Details: Yeast expressing alpha-synuclein, BacTiter-Glo, 24 h; Potency: growth rescue unless noted; growth rescue (activation): at 46.1 µM (top of the series) unless noted
# Summary of the method: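 Galactose-induced alpha-syn yeast (OD600=0.02, raffinose-pregrown) + pinned cpd, 24 hr, 30 deg C; growth by BacTiter-Glo luminescence. Growth restoration scores as activation.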
# Potency is read from the fitted curve at half-maximal effect; tags tell the direction and shape of the fitted curve.
SMILES,Potency,growth rescue (activation)
COc1ccc2oc(C(=O)N3CCN(c4ncccn4)CC3)c(C)c2c1,"inconclusive [activator, single point]",
C=CCNc1oc(COc2ccc(C)cc2)nc1C#N,,inactive: -12.8%
N#C/C(=C\c1ccc(O)cc1)C(=O)NCC1CCCO1 (stereo not given),,inactive: -0.529%
COc1ccc(N2CCN(C(=O)c3ccccc3F)CC2)c([N+](=O)[O-])c1,"inconclusive [activator, single point]",
Cn1c2ccccc2c(=O)c2ccc(NCCc3cccs3)cc21,"inconclusive [activator, single point]",
CCOc1ccc(Cl)cc1CSc1ncn[nH]1,"inconclusive [activator, single point]",
NC(=O)c1ccc2nc(-c3ccccc3)c(-c3ccccc3)nc2c1,,inactive: -10.5%
CCCCc1nc2ccccc2c(NC(=O)CN2CCCC2)c1CCC,,inactive: 0%
CCC/C=C/c1ccc(CN2C(CC(C)C)C(=O)N(Cc3cn(CCC4OCCO4)nn3)CCS2(=O)=O)cc1 (stereo not given),"inconclusive [activator, single point]",
CC(=O)C1=CCC(c2ccccc2Cl)N(S(=O)(=O)c2ccc(C)cc2)C1 (stereo not given),,inactive: 1.77%
CC(C)(C)NC(=O)C(c1cc2ccccc2o1)n1c(=O)c(-c2cc3ccccc3[nH]2)nc2ccccc21 (stereo not given),active: 8.91 µM,
CC(C)C1C(=O)N(Cc2cn(CCC3OCCCO3)nn2)CCS(=O)(=O)N1Cc1ccc(-c2ccc(Cl)c(Cl)c2)cc1 (stereo not given),"inconclusive [activator, single point]",
C=CC[C@@H](CC(=O)N(CCO)Cc1ccccc1)C(=O)N[C@H](COC(=O)[C@@H](CC=C)CC(=O)OC(C)(C)C)Cc1ccccc1,,inactive: -1.18%
COc1cccc(CN2C(=O)c3cccc(N)c3C2=O)c1,,inactive: 2.55%
O=C1COc2ccc(C(=O)COC(=O)CCCOc3ccccc3)cc2N1,,inconclusive: 167% [activator]
CS(=O)(=O)c1ccc(Cl)c(NC(=O)CSc2nnc3n2CCCCC3)c1,"inconclusive [activator, single point]",
O=c1c(Cl)c(NCc2ccccc2Cl)cnn1C12CC3CC(CC(C3)C1)C2,"inconclusive [activator, single point]",
CSc1ccc(-c2cc3c(c4c2ccn4C)C2CCC3O2)cc1 (stereo not given),"inconclusive [activator, single point]",
CC(C)Cc1cc(C(=O)NCc2ccco2)no1,"inconclusive [activator, single point]",
Cc1ccc(SCC2(O)CCN(C(=O)c3ccc(Cl)cc3)CC2)cc1,"inconclusive [activator, single point]",
CC(=O)NC(c1ccccc1)c1cc(Cl)c2cccnc2c1O (stereo not given),"inconclusive [activator, single point]",
COc1ccccc1C(C[N+](=O)[O-])c1c[nH]c2ccccc12 (stereo not given),"inconclusive [activator, partial curve]",
Cc1cc(Cl)c2oc(C(=O)N3CCC(O)(c4ccccc4)CC3)c(C)c2c1,"inconclusive [activator, single point]",
CC(C)(C)c1ccc(-c2nc(SCC(=O)Nc3ccc(Cl)cc3)[nH]c(=O)c2C#N)cc1,,inactive: 1.62%

SMILES,Potency,growth rescue (activation)
Cc1ccccc1N=C(NOCc1ccccc1)c1nonc1N,,inactive: -8.4%
O=C(NCCCc1ccccc1)C1CCC(CNc2c(N3CCCCC3)c(=O)c2=O)CC1 (stereo not given),"inconclusive [activator, single point]",
CC[C@@H](NS(=O)(=O)c1ccc(C)cc1)C(=O)Oc1ccc2c3c(c(=O)oc2c1)CCC3,"inconclusive [activator, single point]",
CCOc1cc(S(=O)(=O)N2CCN(S(=O)(=O)CC)CC2)c(OCC)cc1-n1cnnn1,,inactive: -0.716%
CCc1nnc(NC(=O)c2ccc(NS(=O)(=O)c3ccccc3)cc2)s1,"inconclusive [activator, single point]",
COc1ccc2c(c1OC)OCC2C (stereo not given),"inconclusive [activator, single point]",
Brc1cc2c(cc1CN1CCc3ccccc3C1)OCO2,"inconclusive [activator, single point]",
O=C1CC(N2CCN(S(=O)(=O)c3ccc(Cl)cc3)CC2)C(=O)N1CCc1ccccc1 (stereo not given),"inconclusive [activator, partial curve]",
O=C(NCCc1nc(-c2ccccc2Cl)no1)c1ccccc1,"inconclusive [activator, single point]",
CC(C)(C)NC(=O)C(c1ccncc1)N(Cc1ccc(F)cc1)C(=O)c1ccc(-c2ccccc2)[nH]1 (stereo not given),"inconclusive [activator, single point]",
Cc1ccc(NC(=O)CSc2nncn2-c2ccccn2)cc1Cl,"inconclusive [activator, single point]",
Cc1[nH]n(-c2ccc([N+](=O)[O-])cc2)c(=O)c1C=NCCN1CCN(C(=O)c2ccc(Br)cc2)CC1,,inactive: -26%
O=S(=O)(Nc1cc(Br)cc2cccnc12)c1ccccc1,"inconclusive [activator, partial curve, poor fit]",
O=C(Cc1ccc(-c2ccccc2)cc1)Nc1ccccn1,,inactive: -6.53%
COc1cc(OC)cc(-c2cc3ccc(OC)cc3cn2)c1,,inactive: -23.2%
CC(C)(C)S(=O)N1Cc2cc(C(=O)NCc3ccc4c(c3)OCO4)nc(-c3cccc(-c4cc5ccccc5o4)c3)c2[C@@H]1CCO (stereo not given in full),,inactive: -17.8%
CCOC(=O)c1nnsc1Nc1ccc(C)c(C)c1,,inactive: -4.84%
COC(=O)[C@@]12CCCN1[C@H](c1ccc(-c3cccc(Cl)c3)cc1)[C@H]1C(=O)N(C)C(=O)[C@H]12,"inconclusive [activator, single point]",
CC(C)c1ccc(C2c3[nH]c4ccccc4c3C[C@H]3C(=O)N(c4ccccc4C(=O)N4CCC[C@H]4C(=O)O)C(=O)N23)cc1 (stereo not given in full),,inactive: 7.26%
O=[N+]([O-])c1cnc(Sc2ccncn2)s1,,inactive: -70.7%
COc1ccccc1CNc1nc2cc(-c3ccccc3C)sc2c(=O)n1C,"inconclusive [activator, single point]",
C/C(=N\NC(=O)c1cccc(Br)c1)c1ccccn1,"inconclusive [activator, partial curve]",
Cc1ccc(O)c(-c2[nH]ncc2C(=O)c2ccc(Cl)cc2)c1,"inconclusive [activator, partial curve]",
COc1ccc(C(C)(O)c2nc(-c3ccc4c(c3)OCO4)cs2)cc1 (stereo not given),"inconclusive [activator, partial curve]",

SMILES,Potency,growth rescue (activation)
C=CCN(CC=C)S(=O)(=O)c1ccc(C(=O)Nc2nnc(CSC)o2)cc1,"inconclusive [activator, single point]",
Cc1cccc(NC(=O)CN2NS(=O)(=O)c3ccccc3C2=O)c1,"inconclusive [activator, single point]",
CCOc1ccc(S(=O)(=O)Nc2cccc(Cl)c2)cc1,"inconclusive [activator, single point]",
CN(CCO)C(=O)CCC(=O)Nc1ccc(S(N)(=O)=O)cc1,"inconclusive [activator, single point]",
O=c1[nH]c(=O)n(C2OC(CO)C(O)C2O)cc1F (stereo not given),"inconclusive [activator, single point]",
COCCN(C(=S)Nc1ccccc1OC)C(C)c1cccs1 (stereo not given),"inconclusive [activator, single point]",
Cc1c(C)c2ccc(OC(C)C(=O)NCCCN3CCOCC3)c(C)c2oc1=O (stereo not given),"inconclusive [activator, single point]",
CCC(c1ccc(O)cc1)C(CC)c1ccc(O)cc1 (stereo not given),"inconclusive [activator, single point]",
O=C(c1csc2c1CCCC2)N1CCN(c2ccccc2)CC1,"inconclusive [activator, single point]",
O=C(CCc1ccccc1)Nc1ncn[nH]1,"inconclusive [activator, single point]",
COc1cc(/C=N/Nc2ccc(Cl)nn2)cc(OC)c1O,"inconclusive [activator, single point]",
CCC(C)c1ccc(O)c(NC(=S)NC(=O)c2cccs2)c1 (stereo not given),active: 12.6 µM,
O=S(=O)(c1ccccc1Br)N1CCN(c2ncccn2)CC1,"inconclusive [activator, single point]",
CN(C)CC(CCCCC(CN(C)C)C(=O)c1ccccc1)C(=O)c1ccccc1 (stereo not given),,inactive: -0.223%
Cc1ccc(S(=O)(=O)N(C)c2ccc(OC(=O)CN3C(=O)NC(C)(c4ccccc4)C3=O)cc2)cc1C (stereo not given),,inactive: 9.79%
COc1cccc(NC(=O)CN(C)CC(=O)Nc2ccc(Cl)cc2[N+](=O)[O-])c1,,inactive: 6.65%
Cc1ccc(Sc2cc(C(=O)NCCCN(C)C)c3ccccc3n2)cc1,"inconclusive [activator, single point]",
COc1ccc(/C=C2\CCC(C3CCCC3)C2=O)c(OC)c1OC (stereo not given),"inconclusive [activator, single point]",
Cc1cccc(NC(=O)c2nc[nH]c2C(=O)N[C@@H](C)C(=O)OC(C)(C)C)c1,"inconclusive [activator, single point]",
COc1ccc(-c2nc(SC(C)C(=O)NC3CC3)n[nH]2)cc1 (stereo not given),,inactive: 1.11%
C=CCc1cc(OC)ccc1OCC(O)CN1CCN(c2ccc(OC)cc2)CC1 (stereo not given),inactive,
O=C(N/N=C/c1ccccn1)c1ccc(Br)o1,"inconclusive [activator, single point]",
